According to patent US20160108110A1 (Novartis, published 2016):
Values joined by “and” are separate entries in the source; they are usually repeats but may differ in a detail not shown here. Equal values may be shown once.

T1: Human ANGPTL4(26-406)-FLAG-His6-Avi (human, UniProt Q9BY76 24-406, biotin on the C-terminal Avi tag in the biotinylated preparations (immobilised form in SET, ELISA and Octet))
T1 sequence: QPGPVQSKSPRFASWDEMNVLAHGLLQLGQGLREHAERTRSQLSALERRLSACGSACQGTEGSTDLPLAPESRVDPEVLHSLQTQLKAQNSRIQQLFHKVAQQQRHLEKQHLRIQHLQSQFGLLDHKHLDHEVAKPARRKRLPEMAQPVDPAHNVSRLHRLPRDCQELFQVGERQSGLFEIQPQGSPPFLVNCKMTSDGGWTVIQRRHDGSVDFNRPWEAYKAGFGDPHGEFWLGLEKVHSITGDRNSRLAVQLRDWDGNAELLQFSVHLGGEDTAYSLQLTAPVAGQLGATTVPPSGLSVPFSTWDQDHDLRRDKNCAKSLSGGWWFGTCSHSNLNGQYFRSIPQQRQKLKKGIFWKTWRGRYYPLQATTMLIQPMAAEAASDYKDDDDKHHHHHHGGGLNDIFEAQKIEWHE

T2: Rat ANGPTL4(24-405)-FLAG-His6-Avi (rat, UniProt Q6TMA8 24-405, biotin on the C-terminal Avi tag (Octet))
T2 sequence: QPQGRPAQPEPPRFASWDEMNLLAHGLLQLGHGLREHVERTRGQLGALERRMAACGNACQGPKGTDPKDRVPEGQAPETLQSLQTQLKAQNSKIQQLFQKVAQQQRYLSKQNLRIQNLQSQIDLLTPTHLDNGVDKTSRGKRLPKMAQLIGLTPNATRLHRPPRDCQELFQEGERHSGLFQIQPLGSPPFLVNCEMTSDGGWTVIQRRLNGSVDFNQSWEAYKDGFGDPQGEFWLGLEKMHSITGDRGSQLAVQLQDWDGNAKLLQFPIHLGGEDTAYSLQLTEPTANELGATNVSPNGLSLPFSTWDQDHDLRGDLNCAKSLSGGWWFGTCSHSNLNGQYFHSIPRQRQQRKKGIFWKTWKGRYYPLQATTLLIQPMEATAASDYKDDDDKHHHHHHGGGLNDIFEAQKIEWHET

T3: Cynomolgus monkey ANGPTL4(26-406)-FLAG-His6-Avi (cynomolgus monkey, biotin on the C-terminal Avi tag (Octet))
T3 construct: also called Cyno ANGPTL4 (26-406)
T3 chain: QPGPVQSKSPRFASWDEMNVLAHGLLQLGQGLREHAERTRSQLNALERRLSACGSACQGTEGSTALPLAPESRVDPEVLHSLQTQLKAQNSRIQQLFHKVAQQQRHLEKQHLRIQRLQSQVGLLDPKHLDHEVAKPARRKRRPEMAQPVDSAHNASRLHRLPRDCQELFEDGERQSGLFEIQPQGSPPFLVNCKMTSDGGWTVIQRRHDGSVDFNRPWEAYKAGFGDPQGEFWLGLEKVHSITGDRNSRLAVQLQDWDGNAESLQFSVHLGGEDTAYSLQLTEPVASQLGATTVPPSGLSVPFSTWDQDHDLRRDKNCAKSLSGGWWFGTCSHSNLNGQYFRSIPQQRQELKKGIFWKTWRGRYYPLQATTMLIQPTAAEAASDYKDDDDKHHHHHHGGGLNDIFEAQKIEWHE

T4: Mouse ANGPTL4(26-410)-FLAG-His6-Avi (mouse, UniProt Q9Z1P8 24-410, biotin on the C-terminal Avi tag in the immobilised form)
T4 sequence: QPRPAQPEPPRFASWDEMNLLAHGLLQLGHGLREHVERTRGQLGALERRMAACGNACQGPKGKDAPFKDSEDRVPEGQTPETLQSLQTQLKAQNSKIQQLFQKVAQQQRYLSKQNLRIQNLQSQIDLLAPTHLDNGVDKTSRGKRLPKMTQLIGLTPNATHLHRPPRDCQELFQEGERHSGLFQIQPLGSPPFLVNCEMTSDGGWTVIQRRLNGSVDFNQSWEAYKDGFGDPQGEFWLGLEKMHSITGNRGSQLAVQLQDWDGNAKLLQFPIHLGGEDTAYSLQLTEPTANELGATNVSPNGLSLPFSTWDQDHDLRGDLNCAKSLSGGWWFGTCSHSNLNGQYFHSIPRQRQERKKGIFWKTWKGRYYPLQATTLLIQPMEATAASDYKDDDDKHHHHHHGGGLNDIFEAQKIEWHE

T5: Cyno ANGPTL3 (17-460) (cynomolgus monkey, UniProt A0A2K5UDC5 17-460)
T5 construct: range 17-460; preparation not described
T5 sequence: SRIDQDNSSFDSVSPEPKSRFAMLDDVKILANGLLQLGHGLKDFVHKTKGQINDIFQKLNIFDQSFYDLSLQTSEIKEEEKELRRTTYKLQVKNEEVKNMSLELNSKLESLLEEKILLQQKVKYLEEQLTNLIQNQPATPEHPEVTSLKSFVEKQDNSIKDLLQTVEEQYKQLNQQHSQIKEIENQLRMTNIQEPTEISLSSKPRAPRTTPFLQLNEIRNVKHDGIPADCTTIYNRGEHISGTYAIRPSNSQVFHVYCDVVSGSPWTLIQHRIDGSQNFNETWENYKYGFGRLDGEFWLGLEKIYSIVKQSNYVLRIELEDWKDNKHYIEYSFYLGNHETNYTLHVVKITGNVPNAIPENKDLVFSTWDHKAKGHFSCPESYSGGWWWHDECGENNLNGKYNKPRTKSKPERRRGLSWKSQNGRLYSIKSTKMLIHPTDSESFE

T6: Human ANGPTL3(17-460)-FLAG-His-Avi (human, UniProt Q9Y5C1 17-460, biotin on the C-terminal Avi tag)
T6 construct: also called full length human ANGPTL3; hANGPTL3
T6 sequence: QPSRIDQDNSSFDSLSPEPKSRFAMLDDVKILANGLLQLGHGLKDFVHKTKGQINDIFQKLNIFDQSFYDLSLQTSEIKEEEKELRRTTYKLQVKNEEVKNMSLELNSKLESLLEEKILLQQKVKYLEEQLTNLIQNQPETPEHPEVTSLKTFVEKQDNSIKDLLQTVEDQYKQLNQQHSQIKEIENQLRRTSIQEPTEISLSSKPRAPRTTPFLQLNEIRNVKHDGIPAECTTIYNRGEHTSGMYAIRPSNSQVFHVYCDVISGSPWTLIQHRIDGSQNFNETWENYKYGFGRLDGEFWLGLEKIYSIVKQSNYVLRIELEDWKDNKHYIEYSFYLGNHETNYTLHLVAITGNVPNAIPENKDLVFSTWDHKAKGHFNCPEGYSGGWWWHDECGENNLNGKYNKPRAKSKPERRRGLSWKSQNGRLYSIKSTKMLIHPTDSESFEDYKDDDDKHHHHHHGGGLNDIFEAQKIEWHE

B1: MOR022770 (antibody, human IgG1, kappa)
heavy: EVQLLESGGGLVQPGGSLRLSCAASGFTFSSYWMHWVRQAPGKGLEWVSGISYEGSSTNYADSVKGRFTISRDNSKNTLYLQMNSLRAEDTAVYYCARDSYIYDLHWGFDNWGQGTLVTVSSASTKGPSVFPLAPSSKSTSGGTAALGCLVKDYFPEPVTVSWNSGALTSGVHTFPAVLQSSGLYSLSSVVTVPSSSLGTQTYICNVNHKPSNTKVDKRV[gap - human IgG1 Fc]
light: DIQMTQSPSSLSASVGDRVTITCRASQDISSYLNWYQQKPGKAPKLLIYAASRLQSGVPSRFSGSGSGTDFTLTISSLQPEDFATYYCQQSYTHPYTFGQGTKVEIKRTVAAPSVFIFPPSDEQLKSGTASVVCLLNNFYPREAKVQWKVDNALQSGNSQESVTEQDSKDSTYSLSSTLTLSKADYEKHKVYACEVTHQGLSSPVTKSFNRGEC
notes: human IgG1
B2: MOR022770-LALA (antibody, human IgG1, kappa)
heavy: EVQLLESGGGLVQPGGSLRLSCAASGFTFSSYWMHWVRQAPGKGLEWVSGISYEGSSTNYADSVKGRFTISRDNSKNTLYLQMNSLRAEDTAVYYCARDSYIYDLHWGFDNWGQGTLVTVSSASTKGPSVFPLAPSSKSTSGGTAALGCLVKDYFPEPVTVSWNSGALTSGVHTFPAVLQSSGLYSLSSVVTVPSSSLGTQTYICNVNHKPSNTKVDKRV[gap - human IgG1 Fc with changes]
light: B1 light
notes: also called MOR22770-LALA; MOR02770-LALA

Experiments:
[1] = target: T1, Human ANGPTL4(26-406)-FLAG-His6-Avi; assay: cell-based or functional assay
[2] = target: T1, Human ANGPTL4(26-406)-FLAG-His6-Avi; assay: SET assay (solution equilibrium titration, MSD), IgG
Experimental: SET assays were performed as follows. In a 96-well polypropylene plate, a constant concentration of ANGPTL4 antibody was mixed with different concentrations of non-biotinylated human, cyno, mouse, or rat full-length ANPGLT4 protein, or human ANGPTL4 N-terminal domain protein (5-fold serial dilution) and incubated at 22° C. for 14 hours with constant shaking (300 rpm). On a pre-blocked 384-well streptavidin-coated Meso Scale Discovery (MSD) plate biotinylated ANGPTL4 (full-length human, cyno, mouse, or rat ANGPTL4, or human ANGPTL4 N-terminal domain) protein (1 nM, 15 μL per well) was immobilized and washed thereafter.
The equilibrium binding reactions (15 μL per well) were applied to the MSD plate with immobilized ANGPTL4 and incubated for 20 min at 22° C. The unbound material was removed by washing the plate 3 times with wash buffer, and the captured antibody was detected by adding Sulfo-tagged goat anti-human IgG (Meso Scale Discovery). After washing MSD read buffer T was added and the plate was developed using a Sector Imager 6000 (Meso Scale Discovery). The data were transferred to Microsoft Excel for analysis and plotted using GraphPad Prism v6. The KD values were determined by fitting the data to the following equation: […]

[3] = target: T2, Rat ANGPTL4(24-405)-FLAG-His6-Avi; assay: ForteBio Octet kinetic binding assay; Average KD of the replicates
[4] = target: T3, Cynomolgus monkey …; assay: as above
[5] = target: T1, Human ANGPTL4(26-406)-FLAG-His6-Avi; assay: as above
[6] = target: T4, Mouse ANGPTL4(26-410)-FLAG-His6-Avi; assay: as above
Cyno ANGPTL3 (17-460) = target: T5, Cyno ANGPTL3 (17-460); assay: ForteBio Octet kinetic binding assay; Average KD
[7] = target: T6, Human ANGPTL3(17-460)-FLAG-His-Avi; assay: ForteBio Octet kinetic binding assay; Average KD
[8] = target: T2, Rat ANGPTL4(24-405)-FLAG-His6-Avi; assay: ForteBio Octet kinetic binding assay
[9] = target: T3, Cynomolgus monkey …; assay: ForteBio Octet kinetic binding assay
[10] = target: T1, Human ANGPTL4(26-406)-FLAG-His6-Avi; assay: ForteBio Octet kinetic binding assay
[11] = target: T4, Mouse ANGPTL4(26-410)-FLAG-His6-Avi; assay: ForteBio Octet kinetic binding assay

Reversal of human ANGPTL4 inhibition of human LPL EC50 [1] [nM]	Kd [2] [nM]	Kd [3] [nM]	Kd [4] [nM]	Kd [5] [nM]	Kd [6] [nM]	Kd (Cyno ANGPTL3 (17-460)) [nM]	Kd [7] [nM]	Kd [8]	koff [8]	kon [8]	Kd [9]	koff [9]	kon [9]	Kd [10]	koff [10]	kon [10]	Kd [11]	koff [11]	kon [11]	Binder
4	0.017																			B1
1	0.022	0.456	0.174	0.117	0.726	> 5	> 5	0.405 nM and 0.427 nM and 0.537 nM	3.1e-05 s⁻¹ and 3.4e-05 s⁻¹ and 2.8e-05 s⁻¹	77000 M⁻¹ s⁻¹ and 79000 M⁻¹ s⁻¹ and 52000 M⁻¹ s⁻¹	0.235 nM and 0.112 nM	4.7e-05 s⁻¹ and 2.2e-05 s⁻¹	300000 M⁻¹ s⁻¹ and 200000 M⁻¹ s⁻¹	0.159 nM and 0.076 nM and 0.13 nM and 0.103 nM	3e-05 s⁻¹ and 1.4e-05 s⁻¹ and 2.5e-05 s⁻¹ and 2.9e-05 s⁻¹	180000 M⁻¹ s⁻¹ and 190000 M⁻¹ s⁻¹ and 280000 M⁻¹ s⁻¹	0.994 nM and 0.458 nM	6.1e-05 s⁻¹ and 0.00014 s⁻¹	130000 M⁻¹ s⁻¹ and 140000 M⁻¹ s⁻¹	B2
